Source: PubChem BioAssay AID1768 (National Center for Advancing Translational Sciences (NCATS), 2009)
Screen size: about 270,000 compounds; about 620 (0.23%) were called active. Inconclusive means that the source gave no clear call. Such entries were picked first, then a sample of the others. The call rests on the fitted dose curve; in most records, active means well fitted inhibition curve with a large enough effect in the polarisation, with a control signal flat (not every such curve was filed as active); inconclusive means small, poorly fitted or top-dose-only effect, or effect the other way, or a change in a side signal; inactive means no such curve, though single readings can be large or run the other way; the % refers to the polarisation. A potency beside an inconclusive call is a rough fit, not a confirmed value. “Side channel” marks fits to a control or component signal instead of the main read-out.

target: Menin (Homo sapiens) (UniProt O00255); assay: qHTS Assay for Inhibitors Targeting the Menin-MLL Interaction in MLL Related Leukemias: Competition With Texas Red Labeled MLL-derived Mutant Peptide; settings: fluorescence polarization; series mostly up to 61.6 µM
Potency means the concentration at half of the fitted maximal effect; tags describe the fitted curve by direction and shape or compound fluorescence and quenching.

Chain of UniProt O00255 (O00255 whole entry, looked up): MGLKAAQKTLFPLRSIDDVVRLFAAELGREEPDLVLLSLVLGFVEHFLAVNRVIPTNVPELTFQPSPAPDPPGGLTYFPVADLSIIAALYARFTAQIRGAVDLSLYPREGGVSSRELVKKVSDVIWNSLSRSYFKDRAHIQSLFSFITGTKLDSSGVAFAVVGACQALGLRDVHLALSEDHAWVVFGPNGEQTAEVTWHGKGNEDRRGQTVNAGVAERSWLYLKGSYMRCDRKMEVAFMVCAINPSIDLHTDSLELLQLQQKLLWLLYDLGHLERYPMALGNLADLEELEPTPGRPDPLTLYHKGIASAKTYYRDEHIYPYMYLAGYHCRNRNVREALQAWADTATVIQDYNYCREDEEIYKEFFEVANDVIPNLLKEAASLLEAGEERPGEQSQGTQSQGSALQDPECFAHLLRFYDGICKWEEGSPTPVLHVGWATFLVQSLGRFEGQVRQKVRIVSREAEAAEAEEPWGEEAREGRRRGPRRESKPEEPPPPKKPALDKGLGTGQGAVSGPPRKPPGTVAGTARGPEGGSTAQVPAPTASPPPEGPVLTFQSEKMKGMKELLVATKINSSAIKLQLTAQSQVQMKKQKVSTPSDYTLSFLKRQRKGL

Potency, inconclusive:
O=C(Nc1nc(-c2cccnc2)cs1)c1ccccc1Cl 8.91 µM [fluorescent, side channel, full curve, poor fit]
COc1ccc(NC(=O)c2ccc(-c3ccc([N+](=O)[O-])cc3)o2)cc1 7.94 µM [quencher, side channel, full curve]
Oc1ccc(/C(Cc2ccc3ccccc3n2)=N\Nc2ccccc2)c(O)c1 39.8 µM [quencher, side channel, single point]
Cc1cc(C)c2nc(C)cc(N/N=C/c3ccc(O)cc3)c2c1 25.1 µM [quencher, side channel, single point]
O=C(N=Nc1c(O)[nH]c2ccccc12)c1cc(NS(=O)(=O)c2cccs2)cc(NS(=O)(=O)c2cccs2)c1 4.47 µM [quencher, side channel, full curve, poor fit]
CCN(CC)S(=O)(=O)c1ccc(-c2nnc(SCc3nnc(-c4ccccc4)o3)o2)cc1 20 µM [fluorescent, side channel, single point]
CC1=NOC(=O)/C1=C\c1ccc(-c2ccc(Br)cc2C(=O)O)o1 22.4 µM [quencher, side channel, partial curve]
N#Cc1sc(NCc2cccc(Cl)c2)nc1Cl 14.1 µM [quencher, side channel, partial curve]
CCOC(=O)c1cnc2ccc(C(=O)OC)cc2c1NCCCN1CCOCC1 31.6 µM [inhibitor, partial curve, poor fit]
CCOC(=O)n1c(=O)n(Cc2ccccc2C)c2ccccc21 10 µM [fluorescent, side channel, partial curve]
COc1ccc(Nc2nc3ccc(OC)cc3s2)cc1 25.1 µM [quencher, side channel, partial curve]
CCN(CC)S(=O)(=O)c1ccc(N/N=C(\C)c2ccncc2)c([N+](=O)[O-])c1 22.4 µM [quencher, side channel, partial curve]
CC1CC(C)CN(C(=O)/C(=C\c2ccccc2)c2ccccc2)C1 (configuration not stated) 3.55 µM [fluorescent, side channel, partial curve, poor fit]
COc1ccc(C(=O)Nc2ccc(N3CCC(C)CC3)cc2)cc1Br 14.1 µM [quencher, side channel, partial curve]
COc1cccc(OC)c1C(=O)NC(=S)Nc1cccc(NC(=O)c2ccco2)c1 39.8 µM [inhibitor, single point]
O=C(Nc1sc2c(c1C(=O)O)CCC2)c1cccs1 15.8 µM [quencher, side channel, partial curve]
COc1ccc2oc(=O)cc(CN3CCN(Cc4ccc(OC)c(OC)c4OC)CC3)c2c1 20 µM [fluorescent, side channel, single point]
CN1C(=O)N(C)c2cccc3cccc1c23 14.1 µM [fluorescent, side channel, partial curve]
O=C(CSc1ccc(Cl)cc1)N1CCN(c2ccc(Cl)cc2[N+](=O)[O-])CC1 44.7 µM [inhibitor, partial curve]
COc1ccc(-c2cc(-c3ccccc3)n[nH]2)c(O)c1 17.8 µM [quencher, side channel, partial curve]
CC[C@@H]1C(c2ccccc2)=NN(c2ccc(Br)cc2)[C@H]1C(=O)N1CCOC1=O 2.82 µM [quencher, side channel, full curve, poor fit]
COc1ccccc1CN(C)CC(=O)Nc1ccc(Cl)cc1F 20 µM [fluorescent, side channel, single point]
O=C1CC(N2CCN(c3ccc(F)cc3)CC2)C(=O)N1c1ccc(F)cc1 (configuration not stated) 1.78 µM [inhibitor, partial curve]
COc1ccccc1CNC(=O)N1CCN(S(=O)(=O)c2ccc(Cl)cc2)CC1 39.8 µM [fluorescent, side channel, single point]
CCOc1ccc(NC(=O)CSc2nnc(NC(=O)C3CC3)s2)cc1 39.8 µM [fluorescent, side channel, single point]
Cc1ccc(NC(=O)CSc2n[nH]c(-c3ccccn3)n2)cc1 11.2 µM [quencher, side channel, partial curve]
COc1cc(/C=C2/SC(=S)N(Cc3ccccc3)C2=O)ccc1OS(C)(=O)=O 11.2 µM [quencher, side channel, partial curve]
O=C(N/C(=C/c1cccc(Br)c1)c1nc(=S)[nH][nH]1)c1ccccc1 35.5 µM [quencher, side channel, single point]
CN(C)c1ccc(N=Cc2nc(-c3ccccc3)oc2OC(=O)c2cccc(Cl)c2)cc1 28.2 µM [quencher, side channel, single point]
Cc1nc2c(sc(=S)n2Cc2ccco2)c(=O)n1CC(=O)Nc1cc(F)ccc1F 2.82 µM [quencher, side channel, full curve]
CCOc1ccccc1CNC(=O)C1CCCN(c2nn3c(=O)cc(C)nc3s2)C1 (configuration not stated) 6.31 µM [fluorescent, side channel, single point]
COc1cccc(C(=O)Nc2cccc(-c3ccccc3)c2)c1 0.708 µM [quencher, side channel, full curve, poor fit]
CNc1c(NS(=O)(=O)c2ccc(C(C)(C)C)cc2)c(=O)oc2ccccc12 28.2 µM [fluorescent, side channel, single point]
CCOc1ccc(Cc2onc3c2C(=O)CC(C)(C)C3)cc1OCC 8.91 µM [fluorescent, side channel, partial curve]
N#Cc1cccc2c1-c1ccccc1/C2=N/NC(N)=S 10 µM [quencher, side channel, partial curve]
CCC1=NN(C(=O)C(=O)NCCc2ccccc2)C(O)(C(F)(F)F)C1 (configuration not stated) 10 µM [inhibitor, partial curve]
Oc1ccc(Cl)cc1-c1cc(-c2ccco2)[nH]n1 25.1 µM [quencher, side channel, partial curve]
O=C(O)CC1(c2ccc(F)cc2)C2CC3CC(C2)CC1C3 (configuration not stated) 7.94 µM [inhibitor, full curve, poor fit]
Oc1ccc(/C=N/Nc2ccnc3cc(Cl)ccc23)c(O)c1O 22.4 µM [quencher, side channel, partial curve]
O=C(NCCNc1ccc([N+](=O)[O-])cc1)c1ccc(Cl)cc1 14.1 µM [quencher, side channel, partial curve]
CCOc1ccc(-n2c(Cc3ccccc3)nnc2SCc2c(C)noc2C)cc1 12.6 µM [fluorescent, side channel, partial curve]
CC(C)Oc1ccc(CNC(=O)CCCN2C(=O)C(c3ccccc3)Oc3cccnc32)cc1 (configuration not stated) 15.8 µM [fluorescent, side channel, partial curve]
CCC1=[N+](CC(=O)c2ccc(C)cc2)CCn2cccc21 22.4 µM [inhibitor, partial curve]
O=C(CN1CCSC1=NCc1ccccc1)c1ccc(Cl)cc1 28.2 µM [inhibitor, partial curve]
CCn1c2ccccc2c2cc(NC(=O)CSc3nnc(-c4cccc(Cl)c4)o3)ccc21 14.1 µM [inhibitor, partial curve]
CNCCC1Sc2ccccc2Oc2ccccc21 (configuration not stated) 0.891 µM [inhibitor, full curve]
Nc1ccc2nc(-c3ccccc3)sc2c1 35.5 µM [quencher, side channel, single point]
COc1cccc(CN2CCN(C(=O)c3ccc(-c4ccccc4)cc3)CC2)c1OC 4.47 µM [fluorescent, side channel, full curve]
O=[N+]([O-])c1ccc(S(=O)(=O)Nc2nnc(C(F)(F)F)s2)cc1 25.1 µM [quencher, side channel, partial curve]
Cc1cccc(NC(=O)Cn2c(O)c(N=NC(=O)c3ccccc3O)c3ccccc32)c1 28.2 µM [quencher, side channel, partial curve]

Potency, inactive:
CCc1ccc(/C=C/c2c[nH]c3ccccc23)[n+](CC)c1
CCC(=O)NC(c1ccc(OC)cc1)c1cc(Cl)c2cccnc2c1O (configuration not stated)
COc1cc(/C=C2\SC(=S)N(CC(=O)NC3=NCCS3)C2=O)cc(OC)c1OC
Cc1noc(C)c1COC(=O)CCCc1nc2ccccc2s1
Cc1ccc(NC(=O)c2ccc(C(C)(C)C)cc2)cc1[N+](=O)[O-]
O=C(CSc1nc2ccccc2c(=O)n1Cc1ccc(F)cc1)NCc1cccs1
COc1ccc(-c2cc(COc3ccccc3)on2)cc1
